Measurements taken from PubChem BioAssay (NCI).
Values joined by “and” are separate entries in the source; they are usually repeats but may differ in a detail not shown here. Equal entries are not always repeated.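 Five concentrations, 48 hours, 96-well plates. GI50 = concentration required for 50% inhibition of growth. TGI denotes the concentration required for complete inhibition of growth.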

These compounds were tested on NCI-H322M lung (assay: inhibition of tumour cell growth, NCI panel, 48 h).
`CCOC(=O)CCC(NC(=O)OCc1ccccc1)C(=O)NC(CCC(=O)OCC)C(=O)NNC(=O)OC(C)(C)C` (stereo unspecified) was tested, and the TGI was over 100 µM.
With `CC1(C)C(=O)/C=C\C(=O)C(C)(C)C(=O)/C=C\C(=O)C(C)(C)C(=O)/C=C\C(=O)C(C)(C)C(=O)/C=C\C1=O` the TGI was over 82.8 µM.
`O=c1c(Br)cc2c(-c3ccccc3)c3cc(Br)c(O)c(Br)c3oc-2c1Br` gave a TGI of over 100 µM.
Compound `O=C(O)C1(Cc2ccc3c(c2)CCC3)Cc2ccccc2C1` has a TGI of over 100 µM.
`COc1cc(S(=O)(=O)Nc2ccc(-c3csc(N4C(=O)C(Cl)C4c4ccccc4)n3)cc2)ccc1Cl` (stereo unspecified) showed a TGI of over 100 µM.
For `CCOC(=O)C1=C(C)N(NC(N)=O)C(C)(O)C12CCOC2=O` (stereo unspecified), the TGI was over 100 µM.
In the case of `NC(=O)/C=c1/c2ccccc2n2nc3ccccc3c12`, the TGI is reported as over 100 µM.
`NC(Cc1ccc(S(=O)(=O)O)cc1)C(=O)NC(Cc1ccc(S(=O)(=O)O)cc1)C(=O)NC(Cc1ccc(S(=O)(=O)O)cc1)C(=O)O` (stereo unspecified) gave a TGI of over 100 µM.
With `COc1c(-c2ccc(O)c(O)c2)oc2c(O)c(O)cc(O)c2c1=O` the TGI was over 100 µM.
`O=[n+]1c2ccccc2n([O-])c2cc(Cl)ccc21` was tested, and the GI50 was 18 µM and the TGI was 52 µM.
`N#Cc1nc(-c2ccccn2)oc1N` gave a TGI of over 100 µM.
`COC(=O)c1c[nH]c2c1-c1cc(C(=O)OCc3ccccc3)n(S(=O)(=O)c3ccc(C)cc3)c1C(=O)C2=O` gave a TGI of 0.872 µM.
With `C=CC1(NS(=O)(=O)c2ccc(C)cc2)CCC(C(C)(C)C)CC1` (stereo unspecified) the TGI was over 100 µM.
`COc1ccc(-c2cc(-c3cc(Cl)cc(Br)c3O)[nH]c(=O)n2)cc1` gave a TGI of 59.7 µM.
In the case of `CCN(CC)/[N+]([O-])=N/OCOC(C)=O`, the TGI is reported as over 100 µM.
In the case of `CCOC(=O)[C@H]1Nc2ccc([N+](=O)[O-])cc2C2c3ccccc3CC21` (stereo partly specified), the TGI is reported as over 100 µM.
With `COC(=O)C1=C(C(=O)OC)SC(=C2S[C@@H]3[C@@H]4C[C@H]([C@@H]3S2)[C@H]2C(=O)OC(=O)[C@@H]42)S1` the TGI was over 100 µM.
With `Cc1nc2ccc(NC3OC(CO)C(O)C(O)C3O)cc2c(=O)n1-c1ccccc1` (stereo unspecified) the TGI was over 100 µM.
`COc1ccc(/C=C2\Sc3nnc(CNc4ccc(Cl)cc4)n3N=C2c2cc(F)c(Cl)cc2Cl)cc1OC` showed a TGI of over 100 µM.
Work on `CC(=O)c1cccc(NC(=O)C(=O)C(c2cnc3ccc([N+](=O)[O-])cc3n2)[N+](=O)[O-])c1` (stereo unspecified) yielded a TGI of over 100 µM.
In the case of `Cc1ccc(NC(=S)SCCC(=O)O)cc1`, the TGI is reported as over 100 µM.
Compound `COc1cc2ncnc(Nc3ccc4c(cnn4Cc4ccccc4)c3)c2cc1OC` has a GI50 of 0.416 µM and a TGI of over 25 µM.
`Cc1cc(C(=O)O)c(C)n1-c1cccc(C(=O)O)c1` showed a GI50 of over 100 µM and a TGI of over 100 µM.
With `CC1=CC(C)C(C)N(CCNS(=O)(=O)c2ccc(C)cc2)c2ccccc21` (stereo unspecified) the TGI was over 31.6 µM.
`C=C1C2CC(OC(C)=O)C3(C)C(c4ccoc4)OC(=O)[C@@H](O)[C@]13OC1C[C@H](OC(C)=O)C(C)(C)[C@H](CC(=O)OC)[C@]12C` (stereo partly specified) showed a TGI of over 100 µM.
In the case of `C[C@@H]1C2=CC[C@@]3(C)C(CCC3[C@H](C)[C@H]3C[C@@]4(C)O[C@@](c5cccnc5)(O3)OC4(C)C)[C@@H]2C2OC2[C@@]12CCC(=O)O2` (stereo partly specified), the TGI is reported as over 100 µM.
`O=[N+]([O-])c1ccccc1C=NC12CC3CC(CC(C3)C1)C2` gave a TGI of over 100 µM.
`O=c1c(NO)c([N+](=O)[O-])cnn1-c1ccccc1` gave a TGI of 13 µM.
`CC1Cc2cc(O)c(O)cc2-c2cc(O)c(O)cc2CC1C` (stereo unspecified) was tested, and the TGI was 48.4 µM.
Work on `COC(=O)C1C=NNC1C(=O)OC` (stereo unspecified) yielded a TGI of over 100 µM.
`CCCCCCCCCCCCCCCC(=O)OCC1OC(OC)C2NP(=O)(N(CCCl)CCCl)OC1C2O` (stereo unspecified) was tested, and the TGI was over 100 µM.
Work on `CC(CNCCCNCCNCCCNCO)[N+](=O)[O-]` (stereo unspecified) yielded a TGI of over 100 µM.
Work on `COc1ccc(/C=C2\CN(Cc3cn(CCNc4ccnc5cc(Cl)ccc45)nn3)C/C(=C\c3ccc(OC)c(OC)c3)C2=O)cc1OC` yielded a GI50 of 8.25 µM and a TGI of 24.4 µM.
In the case of `O=C(O)CCc1c2ccc(=O)c(O)c-2oc2c(O)c(O)ccc12`, the TGI is reported as over 100 µM.
With `C/C(=N\NC(=S)N1CC2CCC(CC2)C1)c1cccc(C)n1` the GI50 was 2.51 µM and the TGI was 17.3 µM.
`O=[N+]([O-])/C(C(Cl)=C(Cl)Cl)=C(\Nc1ccccc1)n1nnc2ccccc21` gave a TGI of over 100 µM.
In the case of `C/C(=N\N=C(\[Se])N(C)C)c1ccccn1`, the TGI is reported as 12.2 µM.
Compound `CCCCNC(=O)c1cc(NCc2cc(O)ccc2O)ccc1O` has a GI50 of over 100 µM and a TGI of over 100 µM.
With `Cc1cc(C(=O)NC(CCC(=O)O)C(=O)O)sc1CCC1CNc2nc(N)[nH]c(=O)c2C1` (stereo unspecified) the GI50 was 0.0598 µM and 0.41 µM and the TGI was over 100 µM.
With `Cc1ccc(C(O)(c2ccc(C)cc2)c2ccccn2)cc1` the TGI was over 100 µM.
Work on `CSc1nc(NC2OC(COC(C)=O)C(OC(C)=O)C(OC(C)=O)C2OC(C)=O)c(-c2csc(N)n2)c(=O)n1C` (stereo unspecified) yielded a TGI of over 100 µM.
`COC1C(OC(=O)/C=C/C=C/C=C/C=C\C(=O)O)CCC2(CO2)C1C1(C)OC1CC=C(C)C` (stereo unspecified) was tested, and the GI50 was over 200 µM and the TGI was over 200 µM.
Compound `Nc1c(N2CCOCC2)c(=O)nc2[nH]/c(=C\c3ccccc3)c(=O)n12` has a TGI of over 100 µM.
Compound `CN(C)CC(C(=O)Cc1ccccc1)c1ccccc1` (stereo unspecified) has a GI50 of 12.3 µM and a TGI of 26.6 µM.
Work on `C#CC1(O)c2ccccc2C(=O)c2ccccc21` yielded a TGI of over 100 µM.
`NC(=O)N/N=C(/Cc1nc2ccc(C(=O)c3ccccc3)cc2[nH]c1=O)C(=O)Nc1ccc(C(F)(F)F)cc1[N+](=O)[O-]` showed a TGI of over 100 µM.
Compound `COC(=O)c1ccccc1/C=C1\Cc2c(C)cc(C)cc2C1=O` has a TGI of over 100 µM.
`CCCCCCCCCCCCOc1ccc(/C=C/C2=[N+](CCCl)CCO2)cc1` showed a TGI of 71.8 µM.
`COc1cc([C@@]23OC[C@@H]4[C@@H](OC[C@@H]42)c2cc4c(cc23)OCO4)cc(OC)c1OC` gave a TGI of over 100 µM.
In the case of `CO[C@@H]1C[C@H]2N3CC[C@@]2(c2cc4c(cc2C3)OCO4)[C@H]2O[C@@H]12`, the TGI is reported as over 100 µM.
`CCCCNC(=O)Oc1ccc(/C(=C(/C)Cc2ccc(OC)cc2)c2ccc(OCCN3CCCC3)cc2)cc1` showed a GI50 of 3.26 µM and a TGI of 13.8 µM.
